Potency data for 25 compounds are collected here from PubChem BioAssay AID360 (National Center for Advancing Translational Sciences (NCATS), 2006).

About 550 (1.1%) of roughly 48,000 compounds were called active. Another 4% or so got no clear call; they are omitted. Rule as the data show it: active = potency below about 15 µM; inconclusive = mostly about 16 µM to 33 µM; inactive = weaker than that. Some of the results follow.
Potency is read from the fitted curve at half-maximal effect.

This assay addresses Lysosomal acid glucosylceramidase (Homo sapiens) (UniProt P04062). Put plainly: Glucocerebrosidase.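 Also: the screen sought inhibitors.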 As to conditions: purified enzyme, resorufin glucoside fluorescence (screen aimed at inhibitors), 20 min. The gist of the method: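 Normal human glucocerebrosidase (0.2 nM final) was assayed with resorufin β-D-glucopyranoside (30 uM final) in 50mM citric acid/KH2PO4, 10mM sodium taurocholate, 0.01% tween-20, pH 5.9. Compounds were titrated; fluorescence (Ex 548, Em 600) read after 20 min at RT.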
Sequence of UniProt P04062 (P04062 whole entry, looked up): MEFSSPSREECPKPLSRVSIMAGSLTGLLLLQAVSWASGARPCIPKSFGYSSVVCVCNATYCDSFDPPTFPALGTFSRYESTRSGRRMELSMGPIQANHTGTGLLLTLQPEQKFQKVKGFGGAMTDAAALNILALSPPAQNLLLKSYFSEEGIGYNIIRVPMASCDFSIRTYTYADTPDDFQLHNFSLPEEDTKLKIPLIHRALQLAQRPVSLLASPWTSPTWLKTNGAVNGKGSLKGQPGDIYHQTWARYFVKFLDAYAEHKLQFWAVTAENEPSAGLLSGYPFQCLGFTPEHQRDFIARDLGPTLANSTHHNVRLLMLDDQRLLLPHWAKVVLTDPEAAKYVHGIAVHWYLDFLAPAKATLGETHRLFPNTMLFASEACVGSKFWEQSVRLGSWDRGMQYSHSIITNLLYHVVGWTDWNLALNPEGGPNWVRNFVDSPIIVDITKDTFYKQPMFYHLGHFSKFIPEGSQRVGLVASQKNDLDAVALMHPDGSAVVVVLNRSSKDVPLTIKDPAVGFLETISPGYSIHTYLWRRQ
Turning to `Cc1ccc(-c2nnn(CC(=O)N(CC(=O)NC(C)C)c3cnc4ccccc4c3)n2)o1`, the Potency was inactive: > 76.9 µM.

On to `COC(=O)c1ccc(NC(=O)c2ccc(N(C)S(C)(=O)=O)cc2)cc1`, for which the Potency was inactive: > 76.9 µM.

For the compound `O=C1CCC(C(=O)Nc2cccc3ccccc23)N1` (stereo not given), the Potency was inactive: > 76.9 µM.

`Cc1cccc2cc(C#N)c(NCCCn3ccnc3)nc12`: the Potency is inactive: > 76.9 µM.

Take `CN1CCN(C(=O)CN(Cc2ccc(Cl)cc2)S(C)(=O)=O)CC1`: the Potency was inactive: > 76.9 µM.

As for `COC(=O)c1ccc(NC(=O)CNC(=O)C2CCCCC2)c(C)c1`, the Potency was inactive: > 76.9 µM.

Turning to `c1ccc(OCc2nc3ccccc3s2)cc1`, the Potency was inactive: > 76.9 µM.

In the case of `O=C(CCc1ccccc1)Nc1nc2nc(-c3ccccc3)cc(=O)n2[nH]1`, the Potency was inactive: > 76.9 µM.

As to `O=C(CCCCn1c(=O)[nH]c2ccccc2c1=O)NCCC1=CCCCC1`, the Potency is inactive: > 76.9 µM.

As for `CCOC(=O)CSc1nnc(-c2ccccc2OC)o1`, the Potency was inactive: > 76.9 µM.

For the compound `COc1cccc(-n2nnc3c(=O)n(Cc4c(F)cccc4Cl)cnc32)c1`, the Potency was inactive: > 76.9 µM.

As for `O=C(COC(=O)c1cccs1)NCCN1C(=O)CSC1=O`, the Potency was inactive: > 76.9 µM.

`Cc1ccc(C(C)C)cc1C(=O)CC1(O)C(=O)N(C)c2ccccc21` (stereo not given): the Potency was inactive: > 76.9 µM.

Turning to `Cc1cc(Nc2ccccc2C(=O)O)nc2nc3ccccc3c(=O)n12`, the Potency was inactive: > 76.9 µM.

On to `Cc1ccc(C)c(-n2c(CNc3ccc(F)cc3)nnc2SCC(N)=O)c1`, for which the Potency was inactive: > 76.9 µM.

Consider `CCCCOC(=O)C1=C(C)Nc2ncnn2C1c1ccc(OCC)c(OC)c1` (stereo not given), for which the Potency is inactive: > 76.9 µM.

For the compound `O=C(CSc1nc2c(cnn2-c2ccccc2)c(=O)[nH]1)N1CCOCC1`, the Potency is inactive: > 76.9 µM.

On to `CC(=O)NC1(c2ccccc2)CCN(Cc2nnnn2C(C)(C)C)CC1`, for which the Potency is inactive: > 76.9 µM.

`CC(C)Nc1nc(NC(C)C)nc(C(N)=O)n1`: the Potency is inactive: > 76.9 µM.

As for `COC(=O)c1c(NC(=O)CN2CCN(c3ccccc3OC)CC2)c2c(C)cccc2n1C`, the Potency is inactive: > 76.9 µM.

As for `CC1CCCC(C)N1CCNC(=O)CCn1nc(-c2ccccc2)ccc1=O` (stereo not given), the Potency is inactive: > 76.9 µM.

Regarding `CCCCOC(=O)C1=C(C)NC2(O)c3ccccc3C(=O)C12O` (stereo not given), the Potency is inactive: > 76.9 µM.

Regarding `C=Cc1cccc(NC(=O)COc2ccccc2)c1`, the Potency is inactive: > 76.9 µM.

With `COc1cccc2cc(C(=O)C3=C(O)C(=O)N(CCCN4CCOCC4)C3c3ccncc3)oc12` (stereo not given), the Potency was inactive: > 76.9 µM.

For the compound `CC(=O)c1cccc(S(=O)(=O)NCC(c2ccco2)N2CCCCC2)c1` (stereo not given), the Potency is inactive: > 76.9 µM.
